# Data reported in the RNAGym collection of RNA variant scans (doi:10.1073/pnas.2313332121).
# Variants at the background level are over-represented here.
# B1: TPR 5TU (parent)
# chain: GGAUCUUCUCGAUCUAACAAAAAAGACAAAUCUGCCACAAAGCUUGAGAGCAUCUUCGGAUGCAGAGGCGGCAGCCUUCGGUGGCGCGAUAGCGCCAACGUUCUCAACUAUGACACGCAAAACGCGUGCUCCGUUGAAUGGAGUUUAUCAUG
# Variants of: B1
# Experiment: polymerase ribozyme fitness, log enrichment relative to wild type (log ratio); higher = more active; in vitro selection for triplet polymerase activity
# Summary of the method: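 Streptavidin-bead capture of gel-excised extended constructs, followed by RT-PCR, closed a single triplicate in vitro selection round. That round began by annealing PCR-built, transcribed mutant libraries of each subunit of a heterodimeric triplet polymerase ribozyme with a biotinylated primer, the partner subunit and triplets, then incubating them frozen at −7 °C. After Illumina sequencing of inputs and outputs, genotypes needed ≥10 input reads and ≥1 read per output. Fitness is the base-2 logarithm of genotype enrichment over wild-type enrichment, using inverse-variance-weighted replicate averages.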
row,Variant,polymerase ribozyme fitness (log ratio)
1,C38G C95A A150U,-0.802
2,A40C A41C C43U U53G C95U,≤ -4.2
3,A39G C108A A119G,≤ -4.2
4,A40C C85G C108G,≤ -4.2
5,A39U A113C,-4.11
6,C38U C79G G84A A150G,≤ -4.2
7,A39C C43A C87G C108G,≤ -4.2
8,C38U A47C C93A C125U,-3.16
9,C38U G62C G94U,-3.3
10,A39U A52G C76A G92C,≤ -4.2
11,A39G C85G A89C G92C C95U G124C,≤ -4.2
12,C38U C57U C93A A97C C132G,≤ -4.2
13,A40C C87A C99G U127A,≤ -4.2
14,A39U C43U C57G G58A G80U G94U U146G,≤ -4.2
15,A39C A66G G88C,≤ -4.2
16,C38G C85A G94U C103G,-2.31
17,A39G G50A G81C U82C G92C G140A U151C G152C,≤ -4.2
18,C38U U61G C85A G94C C123A,-1.29
19,A39U C96G C99G A106G,≤ -4.2
20,A39C G50U G71C G86C G112A G136U,≤ -4.2
21,C38U G74A G80C C96G U101C C105G G124U C132G A137U,≤ -4.2
22,A39G G59U C114G U146C U148A,≤ -4.2
23,A39U C96A C99G,≤ -4.2
24,A39U C93G C105U U135A A142C,≤ -4.2

row,Variant,polymerase ribozyme fitness (log ratio)
1,C38U U82A U144A C149G,≤ -4.2
2,C38U C93A U151A,≤ -4.2
3,A39C A49G,-3.48
4,A39G G42C G84A C95U,≤ -4.2
5,A39C A47G C63U G80A U139A,≤ -4.2
6,A39C G71C G83U C95U,≤ -4.2
7,A40C C79U U104A C125A G141A,≤ -4.2
8,A39C G62C,≤ -4.2
9,A39U A49C,≤ -4.2
10,C38U G59C A64U G68A C85U G126A U127C,≤ -4.2
11,A39U U102C,-4.01
12,A39U U102G,≤ -4.2
13,C38U G74A C95U A121U U139A,≤ -4.2
14,C38U G62C C69A G88U C116A,≤ -4.2
15,A39U G92C C108G G126A,≤ -4.2
16,A39U A49C G62A C103G,≤ -4.2
17,C38U A41C A52C A60G C85U C96U G141A A142C,≤ -4.2
18,A40C C79A C96U U101G U127A,≤ -4.2
19,C38U U53A G80C A98U A113G G117A G133U A138U,≤ -4.2
20,A40C C85A U146G G152C,≤ -4.2
21,A39G A66G C85G G133A G143U U144A,≤ -4.2
22,A39C G50C G59C A97U C129A C149U,≤ -4.2
23,A39U G62A A91U C93A A138C C149A,≤ -4.2
24,C38U G50C C54U G65C C87U C99G,≤ -4.2

row,Variant,polymerase ribozyme fitness (log ratio)
1,A40C A47U C87A A89U C103A U130A G136U,≤ -4.2
2,C38U A66G C95U G136A,≤ -4.2
3,A39U U53A C85A,≤ -4.2
4,A39U G59A U78A C93U A97U C108G U148A,≤ -4.2
5,A39U A91U,≤ -4.2
6,A39C G46A G59U G70C C99A G128A,≤ -4.2
7,A39U G94A A119U G140A,≤ -4.2
8,A40C C54G U77G C93U G143U U146C,≤ -4.2
9,C38U G81A C87G C95U C96A A97G A138C G141U,≤ -4.2
10,A39U A40G A49U C57A G74C G92A C95U G100A A106C C125A,≤ -4.2
11,C38U G46A G48A C87G A89C U102G A106U,≤ -4.2
12,C38G U45A C72U C87U A115C,≤ -4.2
13,A39U C57A A60C A73U A97U C123U A142U,≤ -4.2
14,C38U G84U A91U,≤ -4.2
15,A39U G50A A91U A106G G152A,≤ -4.2
16,A39C G88C C132A,≤ -4.2
17,A39C C87U,-2.12
18,A39C C87A,≤ -4.2
19,C38G G62U G83U C95A C99U C105G A137C,≤ -4.2
20,A39C G46A A64G C76A,≤ -4.2
21,A40C C85G A106G G117C,-1.29
22,A39U A52G U61A A73U A115U A150C,≤ -4.2
23,C38U C63U A73G C118U A150G,-2.88
24,C38U G67C C72G G80A A91G A98U U134G,≤ -4.2

row,Variant,polymerase ribozyme fitness (log ratio)
1,C38U C79G C87G,≤ -4.2
2,A39G C54U C85U,-1.83
3,A39G A47C,-1.49
4,A39U U53A G86U,-3.7
5,A39G C75G C129U C131A U139C,≤ -4.2
6,A39U A47G G62A A91U C123A,≤ -4.2
7,C38U U78A U90C G92U C95U A121G,≤ -4.2
8,A39G C54A A73C G80C C87G C93U C116U A121U G140C,≤ -4.2
9,A39C C54A C72U C85G,≤ -4.2
10,A39G C75U C85A C129U A142U,≤ -4.2
11,C38G A98U A122C G141C,-2.06
12,C38U C99U U109G A113C,≤ -4.2
13,A40C A52C,-1.04
14,A39G A64G G94C A106G U134A U135A,≤ -4.2
15,C38U A73U C93U A107U G117U,≤ -4.2
16,A39G G59C A89U U111G,≤ -4.2
17,C38U A52U C87A G136A,≤ -4.2
18,A40C C51U G84A,-0.15
19,A39U U78C G94U U102G,≤ -4.2
20,C38U U134G,-2.53
21,C38U A73U A138C U148A,≤ -4.2
22,A39G A52G A91U,≤ -4.2
23,A39U A52U U61A C87A,≤ -4.2
24,A39G G58U C79U U127G G133C,≤ -4.2

row,Variant,polymerase ribozyme fitness (log ratio)
1,A39C A47U U148G,≤ -4.2
2,C38U A40G A49C G81U C95A A113G G126A A138C,≤ -4.2
3,A39G U55C U56A C116U U139G U144G,-2.27
4,C38U A39G A52U C75U G92A C108G U148G,≤ -4.2
5,A39G A91G,-3.4
6,A39G A91U,≤ -4.2
7,C38U A98U C99G A106C C149G,≤ -4.2
8,A39C G58U G62C C108G A113U A121C U151G,≤ -4.2
9,A39U G58A G88A U90G A106C,≤ -4.2
10,A40C C87A A120C G133U,≤ -4.2
11,A40C C57U U82G C95G A110U,≤ -4.2
12,C38U A64C G83A A122C,≤ -4.2
13,A39G C75U C85A C93A G94A C131G G136C A138C C149U,≤ -4.2
14,A39U A64C G65C A66G G112C C123A,≤ -4.2
15,A39U C99A,-3.7
16,A39C G68A G74U A138G A150C,≤ -4.2
17,C38U A49C C85U G92U C103A U111C,≤ -4.2
18,A39C C75G G83A G88A C123A,≤ -4.2
19,A39G C54A C87A A122U C125G,≤ -4.2
20,A39U A60G C76G G80U A137C U151C,≤ -4.2
21,C38U A64U A73U G80U A97C A150C,≤ -4.2
22,C38U C85U A107U C125G A147C,≤ -4.2
23,A39G A49C C51A A120C,≤ -4.2
24,A39U U53A U55A U56A C93U A106U U135C U148A,≤ -4.2

row,Variant,polymerase ribozyme fitness (log ratio)
1,C38U G59C G81C C95G C116G,-1.71
2,A39G A47G G83A A142G,≤ -4.2
3,A39G G74U G86U C99A G133A A150U,≤ -4.2
4,A39C U56A C72A A119G,≤ -4.2
5,C38U G42A C75G A91G C95U C105U A113U C118G,≤ -4.2
6,A39G A41C,-1.44
7,A40C C85G C87U C93U U148C,≤ -4.2
8,A39C U53A U61A G68U G92A,≤ -4.2
9,A39U C51U C79A A91G,≤ -4.2
10,C38G A110C U145A,≤ -4.2
11,A39C G46A A47U U55A A73G G86A A89U A107C G141C,≤ -4.2
12,A39U C54U U127G A150U,≤ -4.2
13,C38U G117U,0.325
14,A39U G81A C103G A142C,≤ -4.2
15,A39U A52C G62A C87A U127G,≤ -4.2
16,A40C A89C U90G U102A U139G G141A,≤ -4.2
17,C38U U44A G58C G59A G80C G83A A138G,≤ -4.2
18,C38U C95G A120U G152A,-3.59
19,A39U G50A C76U C96A U134A,≤ -4.2
20,C38U C43U U56A G71C U90G G117A,≤ -4.2
21,A39C C43G C57U G126C,≤ -4.2
22,A39G A47U G86C,≤ -4.2
23,A39C A49C C85A C99A,≤ -4.2
24,A40C A41C A107U C108G G117C,≤ -4.2

row,Variant,polymerase ribozyme fitness (log ratio)
1,C38U U44A U61A C114U C118U A120U G140A G141A,≤ -4.2
2,A39U G86U G128A U130G A138C,≤ -4.2
3,A39C G50A C116U,≤ -4.2
4,C38U C87G A137G A142C G143A,≤ -4.2
5,A40C G42C U44A A49G U53G A64G G65U C79U C85A,≤ -4.2
6,C38G C85U C95U C103G A113G C114U A142C,≤ -4.2
7,A39U C43U U61A U135G G136A,≤ -4.2
8,A39C C85U C99G,≤ -4.2
9,A39G A41G G46C C51G U56A A60C C72U A97G U111C C125A,≤ -4.2
10,C38U A49C A60C U82G G83A,≤ -4.2
11,C38U U82A A91G C105G,≤ -4.2
12,A40C G42A C54G C95G C96U A110G,≤ -4.2
13,A39C U45A G58A G80C G84U C95U C108A,≤ -4.2
14,A39U G117C G143U C149G,≤ -4.2
15,A40C C76A C87U C116G G152U,≤ -4.2
16,A40C A49U G50A U61A C85U A137U A142G U148A,≤ -4.2
17,C38U A40C G62C G65U G74C C75U C95U,≤ -4.2
18,A39G C85G C95G G141U,≤ -4.2
19,C38U C54A C57G G143A,-4.08
20,A39C C105U G124A,-2.08
21,C38U C93U,-1.06
22,A39G U44A G84U G100C G117U,≤ -4.2
23,A40C A49C C57A,≤ -4.2
